Assay results published in PubChem BioAssay AID588855 (National Center for Advancing Translational Sciences (NCATS), 2011).
Values joined by “and” are separate entries in the source; they are usually repeats but may differ in a detail not shown here. Equal values may be shown once. The whole screen tested about 410,000 compounds, of which about 5,000 (1.2%) were called active. Inconclusive results, whose numbers are uncertain, are shown with a selection of clear calls. Calls come from the whole dose curve; as a rule, active = well fitted inhibition curve with a large enough effect; inconclusive = small, poorly fitted or top-dose-only effect; inactive = no such curve, though single readings can be large or run the other way. A potency beside an inconclusive call is a rough fit, not a confirmed value.

Assay: qHTS for Inhibitors of TGF-b; note: nearly all actives have a fitted effect of over 65% in size
Conditions: HepG2 CAGA-GFP TGF-b/SMAD3 reporter, GFP fluorescence, 18 h, TGF-beta stimulated, 500 pg/mL final; series mostly up to 46.1 µM
Procedure, shortened: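 Using HEPG2 CAGA-GFP reporter cells at 1000 cells/well, we pinned test compounds, stimulated with recombinant TGF-beta (500 pg/mL final) and measured total well GFP after 18 h.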
Potency is the fitted concentration of half-maximal effect; tags give direction and shape of the fitted curve.

SMILES | Potency
CCOc1cc(CNc2ccc3cn[nH]c3c2)ccc1OC | inconclusive: 35.5 µM [inhibitor, single point]
COc1ccc(Nc2nnc(-c3ccc(C)cc3)c3ccccc23)cc1C(=O)N1CCCCC1 | active: 15.8 µM
O=C1C(=O)N(CCCc2ccccc2)c2ccccc21 | inconclusive: 20 µM [inhibitor, partial curve, poor fit]
CC(C)(C)c1ccc(Cn2nnc3c(=O)[nH]c(C4CCN(C(=O)Cc5cccs5)CC4)nc32)cc1 | inconclusive: 35.5 µM [inhibitor, single point]
O=C1S/C(=C\C=C\c2ccco2)C(=O)N1c1ccccc1 | inconclusive: 10 µM [inhibitor, partial curve, poor fit]
Cc1nc(-c2ccc(Cl)cc2)sc1C1(C)CC(c2ccc(F)cc2)=NO1 (stereo not drawn) | inconclusive: 35.5 µM [inhibitor, single point]
CCN1CCN(C(c2cccs2)C(C)NS(=O)(=O)c2ccc(Br)cc2)CC1 (stereo not drawn) | inactive
COc1ccccc1NC(=O)CCCn1c(=S)[nH]c2ccccc2c1=O | inactive
O=C(NCCC1=CCCCC1)c1ccc(Cl)c(S(=O)(=O)Nc2ccccc2)c1 | active: 12.6 µM
CCOC(=O)c1c(S(=O)(=O)Nc2ccccc2OCC)c(C)n(C)c1C | inconclusive: 3.16 µM [inhibitor, single point]
CCN(CC)C(=O)c1sc2c(c1C)c(=O)n(CCc1ccccc1)c(=O)n2Cc1cc(C)ccc1C | inactive
CCOC1=C2[C@@H](CN(S(=O)(=O)c3ccc(C)cc3)[C@H]2c2ccccc2F)[C@H]2C(=O)N(C3CCCCC3)C(=O)[C@H]2C1 | inconclusive: 6.31 µM [inhibitor, single point]
COc1ccccc1N1CCN(S(=O)(=O)/C=C/c2ccccc2)CC1 | inconclusive: 35.5 µM [inhibitor, single point]
Cc1ccccc1NC(=O)Cc1nc(COC(=O)c2ccc(NC(N)=O)cc2)cs1 | inactive
Cc1ccccc1C(=O)Nc1ccc2nc(N3CCCCC3)cc(C)c2c1 | inactive
CCOC(=O)Cc1csc(NC(=O)CCCc2ccccc2)n1 | inconclusive: 5.62 µM [inhibitor, single point]
CCc1ccccc1OCC(=O)Nc1nc(-c2cccnc2)cs1 | inconclusive: 15.8 µM [inhibitor, single point]
COc1ccc(C2(C)NC(=O)N(CC(=O)NCCC3=CCCCC3)C2=O)cc1OC (stereo not drawn) | inactive
COc1ccc(/C=C/c2ccc3ccccc3[n+]2C)c(OC)c1OC | inactive
COc1ccccc1NC(=O)Nc1nc(C(N)Cc2ccc(C(F)(F)F)cc2)cs1 (stereo not drawn) | inconclusive: 35.5 µM [inhibitor, single point]
Cc1ccc(C(C(=O)NC2CCCCC2)N(Cc2ccco2)C(=O)Cc2c[nH]c3ccccc23)o1 (stereo not drawn) | inconclusive: 12.6 µM [inhibitor, partial curve, poor fit]
Cc1onc(-c2ccccc2)c1C(=O)NC(C)CCc1ccccc1 (stereo not drawn) | inactive
O=C1C=C(Nc2cccc3cccnc23)c2ccccc2C1=O | active: 5.01 µM

SMILES | Potency
COc1ccc(CNC(=O)Cn2cnc3c(OCc4ccccc4)ncnc32)cc1 | inactive
Cc1[nH]n(-c2cccc(Cl)c2)c(=O)c1-c1ccc(Cl)cc1 | inconclusive: 35.5 µM [inhibitor, single point]
Cc1ccc(NC(=O)c2cc3ccccc3o2)nc1 | inactive
CCCC(=O)N1CCC1(C)C(=O)NS(=O)(=O)c1cccc(Cl)c1 (stereo not drawn) | inactive
Cc1cccc(N2CCN(C(=O)C3CCN(S(=O)(=O)c4c(C)noc4C)CC3)CC2C)c1 (stereo not drawn) | inconclusive: 20 µM [inhibitor, single point]
COc1ccc(N(Cc2cccs2)C(=O)c2ccc(OC)c(Cl)c2)cc1 | inactive
Cc1ccc(C(=O)N(Cc2ccccc2)C(C)(C)C)cc1C | inconclusive: 15.8 µM [inhibitor, single point]
O=C(NC1CCS(=O)(=O)C1)/C(=C\c1ccc(F)cc1)NC(=O)c1ccccc1 (stereo not drawn) | inactive
CC(=O)Nc1cccc(-c2csc(Nc3ccc(Cl)cn3)n2)c1 | inconclusive: 35.5 µM [inhibitor, single point]
COc1cccc(Nc2nnc(SCc3nc4ccccc4s3)s2)c1 | inactive
CCN1CCc2c(sc(-n3cccc3)c2C(C)NC(=O)Nc2ccc(Br)cc2)C1 (stereo not drawn) | active: 10 µM
COc1ccc(N(CC(=O)NCc2ccccc2C)S(=O)(=O)c2ccccc2[N+](=O)[O-])c(OC)c1 | inconclusive: 22.4 µM [inhibitor, single point]
O=C(CCCn1c(=S)[nH]c2ccsc2c1=O)NCc1ccco1 | inconclusive: 35.5 µM [inhibitor, single point]
Cc1ccc(SCC(=O)OCC(=O)NC(C)c2ccc(Br)cc2)cc1 (stereo not drawn) | inconclusive: 35.5 µM [inhibitor, single point]
Cc1noc(/C=C/c2ccccn2)c1[N+](=O)[O-] | inactive
CC(=O)N1CCc2cc(Br)cc(S(=O)(=O)CCC(=O)N3CCN(c4ccccc4Cl)CC3)c21 | inconclusive: 3.16 µM [inhibitor, partial curve, poor fit]
Cc1ccc(CN(C(=O)COc2cc(C)c(Cl)c(C)c2)c2ccccn2)o1 | inconclusive: 17.8 µM [inhibitor, single point]
CC(Sc1nc2ccccc2c(=O)n1CC1CCCO1)C(=O)N(C)c1ccccc1 (stereo not drawn) | inactive
CC(=O)NCCNc1nc(NCc2ccccc2)nc2ccsc12 | inconclusive: 11.2 µM [inhibitor, partial curve, poor fit]
CCN(CC)c1c(C)nc2ccc(C(=O)Nc3cc(-c4ccccc4)ccc3OC)cn12 | inconclusive: 25.1 µM [inhibitor, single point]
COc1cccc(C(=O)CC(=O)C(=O)Nc2ccc([N+](=O)[O-])cc2C)c1 | inactive
Cc1ccccc1C(=O)Nc1ccc(C(=O)N/N=C/c2ccc(F)cc2)cc1 | inconclusive: 10 µM [inhibitor, partial curve, poor fit]
COc1cc(C2CC(=O)Oc3c2c(=O)[nH]c2ccccc32)cc(OC)c1OC (stereo not drawn) | inactive

SMILES | Potency
c1ccc(Cn2nnnc2CN2CCN(Cc3ccc4c(c3)OCO4)CC2)cc1 | inactive
CC(C)n1ncc2c(C(=O)NCCOc3ccccc3F)cc(C3CC3)nc21 | inconclusive: 3.98 µM [inhibitor, partial curve, poor fit]
O=C(NCc1cccs1)C(=O)NCC(c1ccco1)N1CCN(c2ccccc2F)CC1 (stereo not drawn) | inactive
CCOc1ccc(Nc2c(S(=O)(=O)c3ccccc3)cnc3ccc(F)cc23)cc1 | inconclusive: 25.1 µM [inhibitor, single point]
Cc1cc(N2CCN(C(=O)c3cccs3)CC2)c(F)cc1[N+](=O)[O-] | inconclusive: 20 µM [inhibitor, partial curve, poor fit]
CC(=O)Nc1ccc2sn(-c3ccccc3)c(=O)c2c1 | inconclusive: 35.5 µM [inhibitor, single point]
Cc1cccc(N2CCN(CC(=O)NCc3ccc(Cl)cc3)CC2)c1C | inconclusive: 20 µM [inhibitor, single point]
O=C(NC1CCCCC1)c1ccc([N+](=O)[O-])o1 | inconclusive: 31.6 µM [inhibitor, single point]
CCCOc1ccc(/C=N/Nc2cccc([N+](=O)[O-])c2)c(O)c1 | inconclusive: 28.2 µM [inhibitor, single point]
Cc1c(S(=O)(=O)N2CCN(c3ccc(F)cc3)CC2)c(=O)n(C)c(=O)n1C | inconclusive: 0.112 µM [inhibitor, full curve]
O=C(NCc1nnnn1-c1ccc(F)cc1)c1ccc2ccccc2c1 | inactive
O=C(C[C@H]1C/C=C\CC[C@H](Cc2ccc(F)cc2)C(=O)O[C@@H](c2ccccc2)CNC1=O)N[C@@H](CO)Cc1ccccc1 | active: 7.08 µM
CC(=O)N1CCc2c(sc3c2c(=O)n(CCc2ccccc2)c(=O)n3Cc2ccccc2C)C1 | inconclusive: 35.5 µM [inhibitor, single point]
O=C(COc1ccc(/C=N/NC(=O)c2ccncc2)cc1)Nc1cccc([N+](=O)[O-])c1 | inconclusive: 35.5 µM [inhibitor, single point]
Cc1ccc(C)c(-c2ccc(=O)n(Cc3c(F)cccc3Cl)n2)c1 | inconclusive: 12.6 µM [inhibitor, partial curve, poor fit] and inconclusive: 15.8 µM [inhibitor, single point]
Cc1cccc(N2CCN(S(=O)(=O)c3ccc4c(c3)NC(=O)CS4)CC2)c1C | inconclusive: 28.2 µM [inhibitor, single point]
CC1=C(C(=O)Nc2ccc(Cl)cc2)C(c2ccccc2)n2ncc(C(=O)Nc3ccccc3)c2N1 (stereo not drawn) | inconclusive: 6.31 µM [inhibitor, partial curve]
C=C1CCN(c2ccc(C(=O)NCCC)cc2[N+](=O)[O-])CC1 | inconclusive: 22.4 µM [inhibitor, single point]
Cc1ccc(C)c(Cn2c(=O)c3c(nc4n3CCN4c3ccccc3)n(C)c2=O)c1 | inactive
CCOC(=O)c1c(C)n(C)c2ccc(O)c(CN(CC)CC)c12 | inconclusive: 7.08 µM [inhibitor, partial curve, poor fit]
COCCn1c(C)cc(C(=O)CSc2nc3ccccc3c(=O)[nH]2)c1C | inactive
Cc1ccc(Cn2nc3c4cc(F)ccc4n(Cc4ccc(F)cc4)cc-3c2=O)cc1 | inactive
